{
  "source": "PubChem BioAssay AID504332",
  "about": "(National Center for Advancing Translational Sciences (NCATS), 2011)",
  "note": "In all, about 350,000 compounds went through this assay and about 31,000 (8.9%) were called active. Inconclusive results, whose numbers are uncertain, are shown with a selection of clear calls. Calls come from the whole dose curve; as a rule, active = well fitted inhibition curve with a large enough effect; inconclusive = small, poorly fitted or top-dose-only effect; inactive = no such curve, though single readings can be large or run the other way. Where the call is inconclusive, the potency comes from a doubtful curve fit.",
  "data": [
    {"target": "Histone-lysine N-methyltransferase EHMT2 (Homo sapiens) (UniProt Q96KQ7)", "sequence (Q96KQ7 whole entry, looked up)": "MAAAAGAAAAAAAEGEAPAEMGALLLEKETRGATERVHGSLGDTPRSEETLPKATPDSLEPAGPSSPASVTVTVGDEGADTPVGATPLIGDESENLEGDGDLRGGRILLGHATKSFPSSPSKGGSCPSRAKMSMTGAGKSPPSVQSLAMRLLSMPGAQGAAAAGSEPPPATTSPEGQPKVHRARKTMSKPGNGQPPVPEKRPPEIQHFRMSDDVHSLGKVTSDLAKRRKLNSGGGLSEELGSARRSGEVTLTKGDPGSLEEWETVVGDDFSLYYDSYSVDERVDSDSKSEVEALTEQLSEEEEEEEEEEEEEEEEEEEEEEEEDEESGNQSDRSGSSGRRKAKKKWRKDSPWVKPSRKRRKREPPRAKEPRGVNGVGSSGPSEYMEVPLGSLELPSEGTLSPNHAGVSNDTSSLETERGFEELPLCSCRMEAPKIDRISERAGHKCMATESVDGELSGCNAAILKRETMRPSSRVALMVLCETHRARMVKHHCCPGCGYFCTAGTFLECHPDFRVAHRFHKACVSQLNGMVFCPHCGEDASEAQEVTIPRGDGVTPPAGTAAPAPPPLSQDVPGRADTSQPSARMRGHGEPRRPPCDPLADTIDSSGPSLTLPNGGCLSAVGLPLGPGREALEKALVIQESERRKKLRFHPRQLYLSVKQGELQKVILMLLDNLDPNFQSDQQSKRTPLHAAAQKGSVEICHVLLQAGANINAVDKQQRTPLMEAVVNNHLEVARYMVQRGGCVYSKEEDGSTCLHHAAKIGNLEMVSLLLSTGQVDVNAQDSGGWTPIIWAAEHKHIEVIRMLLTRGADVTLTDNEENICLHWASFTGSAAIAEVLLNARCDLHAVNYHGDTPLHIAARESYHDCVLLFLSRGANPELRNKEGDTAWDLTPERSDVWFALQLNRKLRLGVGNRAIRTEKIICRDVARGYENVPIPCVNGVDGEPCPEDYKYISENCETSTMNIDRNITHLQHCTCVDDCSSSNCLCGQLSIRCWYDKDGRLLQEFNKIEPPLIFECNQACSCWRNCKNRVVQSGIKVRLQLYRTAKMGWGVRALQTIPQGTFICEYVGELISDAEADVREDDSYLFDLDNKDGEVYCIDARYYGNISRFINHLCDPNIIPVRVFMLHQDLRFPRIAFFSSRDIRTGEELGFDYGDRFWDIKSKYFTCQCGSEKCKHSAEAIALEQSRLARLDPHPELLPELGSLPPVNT", "test": "qHTS Assay for Inhibitors of Histone Lysine Methyltransferase G9a; note: nearly all actives have a fitted effect of over 75% in size; note: potency is the fitted concentration of half-maximal effect; tags give direction and shape of the fitted curve; for activity, negative = inhibition: % is set by controls: 0 for no effect and ±100 for the full control effect", "conditions": "G9a H3K9 monomethylation, AlphaScreen, 2 h; activity, negative = inhibition: at 59 µM (top of the series) unless noted", "summary_of_the_method": "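Quantitative HTS format: methyltransferase activity on a biotin-tagged H3K9 peptide is measured by AlphaScreen, using a rabbit anti-monomethyl-H3K9 antibody with streptavidin donor and anti-IgG acceptor beads. Final levels are 20 nM enzyme, 500 nM peptide, 20 uM SAM; 2 h RT.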", "values": [
      {"compound": "CCOc1cc2c3c(c1)C1(C(=O)N3C(C)(C)CC2C)C(C#N)=C(N)N2C(=C1C#N)Nc1ccccc12", "note": "(stereo unspecified)", "Potency": "inconclusive: 3.55 µM [inhibitor, full curve]"},
      {"compound": "COc1cc(C(=O)N(Cc2ccc(N(C)C)cc2)CC2CCCO2)cc(OC)c1OC", "note": "(stereo unspecified)", "Potency": "inconclusive: 22.4 µM [inhibitor, partial curve, poor fit]"},
      {"compound": "COC(=O)CNc1cc(S(=O)(=O)N2CCCCC2)ccc1Oc1cccc(C)c1", "Potency": "inconclusive: 89.1 µM [inhibitor, single point]"},
      {"compound": "CSCCC(NC(=O)c1ccc(Cl)c([N+](=O)[O-])c1)C(=O)N1CCN(C/C=C/c2ccccc2)CC1", "note": "(stereo unspecified)", "Potency": "inconclusive: 35.5 µM [inhibitor, full curve]"},
      {"compound": "Cc1cccc2cc(CN(CC3CCCO3)C(c3nnnn3Cc3ccco3)C(C)C)c(=O)[nH]c12", "note": "(stereo unspecified)", "activity, negative = inhibition": "inconclusive: -64.7% [inhibitor]"},
      {"compound": "CCOC(=O)CN1C(c2ccc(O)cc2)Nc2ccc(Br)cc2C1c1ccccc1", "note": "(stereo unspecified)", "activity, negative = inhibition": "inactive: 16%"},
      {"compound": "CCCN1CN=C(NS(=O)(=O)c2ccc(NC(C)=O)cc2)NC1", "activity, negative = inhibition": "inactive: 0.281%"},
      {"compound": "COc1ccc(OC)c(-n2c(CN3CCC(C(N)=O)CC3)nc3ccccc3c2=O)c1", "Potency": "inconclusive: 35.5 µM [inhibitor, single point]"},
      {"compound": "CN(C)c1ccc(N2CC(C)(C)C2=O)cc1", "Potency": "active: 10 µM"},
      {"compound": "O=C(CSc1nc(=O)n(Cc2ccncc2)c2c1CCC2)Nc1ccc(F)cc1F", "activity, negative = inhibition": "inactive: 6.68%"},
      {"compound": "Cc1cccc(NC(=O)CSCC(=O)Nc2sccc2C#N)c1", "Potency": "inconclusive: 89.1 µM [inhibitor, single point]"},
      {"compound": "CCOC(=O)C(CS)NCCN[C@@H](CS)C(=O)OCC", "note": "(stereo partly specified)", "Potency": "inconclusive: 0.891 µM [inhibitor, full curve, poor fit]"},
      {"compound": "CC1(C)CC(=O)C(=Cc2cn(CCC#N)nc2-c2ccc(Cl)cc2)C(=O)C1", "Potency": "inconclusive: 28.2 µM [inhibitor, single point]"},
      {"compound": "N#CC12CCCCC1CC1CCCCC1(C#N)N2Cc1ccccn1", "note": "(stereo unspecified)", "Potency": "inconclusive: 0.631 µM [inhibitor, partial curve, poor fit]"},
      {"compound": "Cc1cc(C)c(S(=O)(=O)N2CCN(S(=O)(=O)N3CCOCC3)CC2)c(C)c1", "activity, negative = inhibition": "inactive: 24%"},
      {"compound": "Fc1ccc(C2=CC(c3ccco3)n3ncnc3N2)cc1", "note": "(stereo unspecified)", "Potency": "inconclusive: 0.282 µM [inhibitor, full curve, poor fit]"},
      {"compound": "Cc1ccc2nc(-c3ccc(C)o3)c(Nc3ccc4c(c3)OCCO4)n2c1", "Potency": "active: 4.47 µM"},
      {"compound": "CCOc1ccc(NC(=O)CCCOc2cc(=O)n(C)c3ccccc23)cc1", "Potency": "inconclusive: 8.91 µM [inhibitor, partial curve]"},
      {"compound": "O=C(Cc1coc(-c2ccc(F)cc2)n1)Nc1ccccc1", "activity, negative = inhibition": "inconclusive: -92.8% [inhibitor]"},
      {"compound": "COc1ccc(N2CC(NC(=O)C3CCCCC3)CC2=O)cc1OC", "note": "(stereo unspecified)", "Potency": "inconclusive: 0.282 µM [inhibitor, partial curve, poor fit]"},
      {"compound": "COc1ccc(N2CCN(C(=O)CN3C(=O)COc4ccc(S(=O)(=O)N5CCC(C)CC5)cc43)CC2)cc1", "Potency": "inconclusive: 28.2 µM [inhibitor, single point]"},
      {"compound": "COc1ccc(N2CCN(S(=O)(=O)CCNC(=O)Cc3ccc(OC)c(OC)c3)CC2)cc1", "Potency": "inconclusive: 31.6 µM [inhibitor, partial curve, poor fit]"},
      {"compound": "O=C(Nc1ccccc1C(=O)O)c1ccc(N2C(=O)C3CC=CCC3C2=O)cc1", "note": "(stereo unspecified)", "Potency": "inconclusive: 10 µM [inhibitor, partial curve, poor fit]"},
      {"compound": "Cc1ccc(OCCCCN2CCC(C)CC2)c(Br)c1", "Potency": "inconclusive: 5.62 µM [inhibitor, partial curve, poor fit]"},
      {"compound": "COc1ccc(NC(=O)CCSc2ccc3ccccc3n2)cc1", "Potency": "inconclusive: 1.78 µM [inhibitor, full curve]"},
      {"compound": "O=C(Nc1ccccn1)C1CCN(S(=O)(=O)c2ccc3c(c2)OCCO3)CC1", "Potency": "inconclusive: 7.08 µM [inhibitor, single point]"},
      {"compound": "CC1CCc2sc(C(=O)N3CCC(C(N)=O)CC3)cc2C1", "note": "(stereo unspecified)", "activity, negative = inhibition": "inactive: -10.5% [at 12.7 µM]"},
      {"compound": "CCS(=O)(=O)c1oc(-c2ccc(F)cc2)nc1S(=O)(=O)c1ccccc1", "Potency": "inconclusive: 10 µM [inhibitor, partial curve]"},
      {"compound": "COc1ccc(OC)c(CNC(=O)c2ccc3c(c2)c(C)c(C)n3C)c1", "Potency": "inconclusive: 31.6 µM [inhibitor, single point]"},
      {"compound": "C/C(=N\\Nc1cccc(C(F)(F)F)c1)c1ccc(O)cc1", "Potency": "active: 8.91 µM"},
      {"compound": "Cc1ccc(C(=O)C[n+]2cccc3ccccc32)cc1", "Potency": "inconclusive: 7.94 µM [inhibitor, full curve, poor fit]"},
      {"compound": "CN(C)CCCNC(=S)N(CCN(C)C)Cc1cc2cc3c(cc2[nH]c1=O)OCCO3", "Potency": "inconclusive: 89.1 µM [inhibitor, single point]"},
      {"compound": "COc1ccc(CCNC(=O)C(NS(=O)(=O)c2ccc3c(c2)CCN3C(C)=O)C(C)C)cc1OC", "note": "(stereo unspecified)", "Potency": "active: 39.8 µM"},
      {"compound": "Cc1nn(-c2ccccc2)c(C)c1/C=N/N1CCN(Cc2ccccc2)CC1", "Potency": "active: 16.8 µM"},
      {"compound": "Cn1c(=O)c2c(ncn2CC(=O)N/N=C/C=C\\c2ccccc2[N+](=O)[O-])n(C)c1=O", "activity, negative = inhibition": "inactive: 1.1% [at 102 µM]"},
      {"compound": "Cc1cccc(C2c3[nH]c4ccccc4c3CCN2C(=O)c2cc(CC(C)C)nc(C)n2)n1", "note": "(stereo unspecified)", "Potency": "inconclusive: 44.7 µM [inhibitor, partial curve]"},
      {"compound": "COc1ccc(N(CC(=O)NC2CCCCC2)C(=O)c2ccc(C)s2)c(OC)c1", "activity, negative = inhibition": "inactive: -8.94% [at 102 µM]"},
      {"compound": "O=C(CSc1nnnn1C1CCCCC1)NCc1ccco1", "Potency": "inconclusive: 1.41 µM [inhibitor, partial curve, poor fit]"},
      {"compound": "C=CCOc1ccc(/C(O)=C2/C(=O)C(=O)N(CCCn3ccnc3)C2c2cccs2)cc1", "note": "(stereo unspecified)", "activity, negative = inhibition": "inactive: -14.3%"},
      {"compound": "COc1ccc(-c2n[nH]c3c2CN(C(=O)c2ccc(F)cc2)CC3)cc1", "Potency": "inconclusive: 79.4 µM [inhibitor, partial curve, poor fit]"},
      {"compound": "CCCC(=O)Nc1nc(C)c(-c2csc(Nc3cc(OC)ccc3OC)n2)s1", "Potency": "inconclusive: 17.8 µM [inhibitor, partial curve, poor fit]"}
    ]}
  ]
}
